Measurements: article PMC8414166

Assays:
[1] = surface cell ELISA and immunofluorescence with MRAP2 co-expression; details: glycan lost; control: wild-type 2HA-PKR2 with MRAP2
[2] = fixed-cell ELISA, anti-HA, permeabilized cells; details: glycan lost; control: wild-type 2HA-PKR2
[3] = anti-HA immunofluorescence, non-permeabilized CHO cells; details: glycan lost; control: wild-type 2HA-PKR2
[4] = fixed-cell ELISA, anti-HA, non-permeabilized cells; details: glycan lost; control: wild-type 2HA-PKR2

B1: PKR2: N7Q (protein)
parent chain: MAAQNGNTSFTPNFNPPQDHASSLSFNFSYGDYDLPMDEDEDMTKTRTFFAAKIVIGIALAGIMLVCGIGNFVFIAALTRYKKLRNLTNLLIANLAISDFLVAIICCPFEMDYYVVRQLSWEHGHVLCASVNYLRTVSLYVSTNALLAIAIDRYLAIVHPLKPRMNYQTASFLIALVWMVSILIAIPSAYFATETVLFIVKSQEKIFCGQIWPVDQQLYYKSYFLFIFGVEFVGPVVTMTLCYARISRELWFKAVPGFQTEQIRKRLRCRRKTVLVLMCILTAYVLCWAPFYGFTIVRDFFPTVFVKEKHYLTAFYVVECIAMSNSMINTVCFVTVKNNTMKYFKKMMLLHWRPSQRGSKSSADLDLRTNGVPTTEEVDCIRLK
other: MRAP2-mediated inhibition of surface trafficking [1]: no change
expression_or_secretion, percent_of_wt [2]: decreases
localisation_or_trafficking [3]: no change
localisation_or_trafficking, percent_of_wt [4]: decreases

B2: PKR2: N27Q (protein)
parent chain: B1 parent chain
expression_or_secretion, percent_of_wt [2]: decreases, expression of PKR2-N27Q and PKR2-N7/27Q were about half of the unmodified receptor
localisation_or_trafficking [3]: abolishes
localisation_or_trafficking, percent_of_wt [4]: decreases

B3: PKR2: N7/27Q (protein)
parent chain: B1 parent chain
expression_or_secretion, percent_of_wt [2]: decreases
localisation_or_trafficking [3]: abolishes
localisation_or_trafficking, percent_of_wt [4]: decreases
